According to publication PMC4336329 (PLoS ONE, 2015):
The whole screen tested about 310,000 compounds, of which about 2,200 (0.71%) showed an effect of 50% or more. The effect is printed as a negative number. Some of the results follow.

These compounds were tested against human ether-à-go-go-related gene (hERG) potassium channel (human, UniProt Q12809) (assay: primary screen, population patch clamp on CHO cells stably expressing hERG).
human ether-à-go-go-related gene (hERG) potassium channel, sequence (Q12809 whole entry, looked up): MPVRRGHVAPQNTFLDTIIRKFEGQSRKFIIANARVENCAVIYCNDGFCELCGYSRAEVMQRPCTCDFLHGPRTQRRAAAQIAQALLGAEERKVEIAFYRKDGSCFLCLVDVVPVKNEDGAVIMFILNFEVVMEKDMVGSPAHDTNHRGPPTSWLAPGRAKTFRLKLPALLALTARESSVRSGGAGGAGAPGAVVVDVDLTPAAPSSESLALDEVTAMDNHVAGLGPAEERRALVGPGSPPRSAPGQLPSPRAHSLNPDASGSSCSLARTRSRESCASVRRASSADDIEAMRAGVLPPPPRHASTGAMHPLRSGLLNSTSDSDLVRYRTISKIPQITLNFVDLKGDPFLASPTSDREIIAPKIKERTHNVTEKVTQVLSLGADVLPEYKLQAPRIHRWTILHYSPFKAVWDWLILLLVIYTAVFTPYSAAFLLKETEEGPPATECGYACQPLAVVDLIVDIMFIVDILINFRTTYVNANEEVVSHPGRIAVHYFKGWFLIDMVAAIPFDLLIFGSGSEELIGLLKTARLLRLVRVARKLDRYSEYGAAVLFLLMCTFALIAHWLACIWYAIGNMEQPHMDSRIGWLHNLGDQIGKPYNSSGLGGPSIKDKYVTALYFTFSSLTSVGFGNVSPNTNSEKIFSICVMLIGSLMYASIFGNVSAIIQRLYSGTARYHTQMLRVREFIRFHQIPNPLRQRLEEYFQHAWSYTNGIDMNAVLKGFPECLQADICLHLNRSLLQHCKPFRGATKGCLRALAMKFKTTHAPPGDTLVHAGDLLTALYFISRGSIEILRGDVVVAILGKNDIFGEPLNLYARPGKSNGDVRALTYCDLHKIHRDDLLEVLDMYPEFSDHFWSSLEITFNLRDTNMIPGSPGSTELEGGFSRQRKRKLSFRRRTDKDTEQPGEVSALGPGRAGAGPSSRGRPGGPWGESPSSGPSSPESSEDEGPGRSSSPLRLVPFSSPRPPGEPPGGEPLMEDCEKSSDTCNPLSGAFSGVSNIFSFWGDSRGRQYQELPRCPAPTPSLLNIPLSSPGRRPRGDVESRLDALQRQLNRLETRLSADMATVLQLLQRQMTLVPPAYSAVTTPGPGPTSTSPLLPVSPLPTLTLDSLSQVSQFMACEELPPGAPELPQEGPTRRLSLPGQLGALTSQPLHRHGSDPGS

| Structure (SMILES) | hERG current change (%, negative = inhibition) at 1uM |
| --- | --- |
| CC(C)Sc1nsc2nc(=O)c(/C=C3\C=Nc4ccccc43)c(N)n12 | 9.89% |
| CC1(C)CC(=O)C(C(c2ccco2)C2C(=O)CC(C)(C)CC2=O)C(=O)C1 | 6.11% |
| O=c1c2cc([N+](=O)[O-])cc([N+](=O)[O-])c2[nH]n1-c1ccccc1 | 13.8% |
| CC(=O)Nc1ccc(NC(=O)C(C)OC(=O)c2ccc(OCc3c(C)noc3C)cc2)cc1 (centres unmarked) | -15.5% |
| CCNC(=O)COC(=O)CCC(=O)c1ccc(F)cc1 | 5.15% |
| COCCNC(=O)N1[C@H]2CC[C@@H]1C(C(=O)OC)=C(c1ccc(OC(F)(F)F)cc1)C2 | 11.6% |
| CN1/C(=C/c2cccc[n+]2C)Sc2ccccc21.[I-] | -16.9% |
| CC(=O)N1c2ccccc2NC(=O)C1(C)C | 13.8% |
| Cc1ccc(C(=O)NN=C2CCCCCC2)s1 | 6.19% |
| COc1ccccc1-n1cnnc1SC(C)C(=O)Nc1cccc([N+](=O)[O-])c1 (centres unmarked) | 12.3% |
| COc1cc(C(=O)Nc2cccc(C)c2C)c(Br)c(OC)c1OC | 4.34% |
| CCOC(=O)C1CCN(C(=O)c2n[nH]c(=O)c3ccccc23)CC1 | 15.7% |
| COc1ccc(C2C(C(=O)Nc3cccnc3)=C(C)Nc3nc(-c4cccs4)nn32)cc1OC (centres unmarked) | 11.3% |
| CN1CCN(c2ccc(CNS(=O)(=O)Cc3ccc(Cl)cc3)cc2)CC1 | 10.8% |
| CC(C)(C)n1nc2c(c1NC(=O)c1ccccc1S(=O)(=O)C(F)F)CS(=O)(=O)C2 | 7.96% |
| CCCCC(=O)Nc1cccc(C(=O)N/N=C/c2ccc(OC)cc2OC)c1 | 7.55% |
| O=C(CNC(=S)N(Cc1ccc(F)cc1)C1CCCCC1)NCCN1CCOCC1 | 4.36% |
| OC(COc1ccc2ccccc2c1Br)Cn1cnc(-c2ccccc2)c1 (centres unmarked) | 5.05% |
| Cc1cc(C)n2nc(CC(=O)NNC(=O)COc3ccccc3)nc2n1 | 5.14% |
| CCOc1ccc(-c2c(C(=O)N/N=C/c3ccccc3)nnn2-c2nonc2N)cc1 | 12.1% |
| Cc1c(C(=O)N2CCCC2)oc2c1-c1nn(CC(=O)NCCCN3CCCCC3C)cc1CC2 (centres unmarked) | 32.8% |
| Cc1cc(C(=O)Cn2nc(C(=O)O)c3ccccc3c2=O)c(C)n1-c1cccc(C(F)(F)F)c1 | -3.3% |
| Cc1ccc2c(c1)C(=O)CC1(CCCC1)O2 | 0.593% |

| Structure (SMILES) | hERG current change (%, negative = inhibition) at 1uM |
| --- | --- |
| Cc1cccc(-c2ncc(CN3CCCC(CO)(Cc4cccc(Cl)c4)C3)cn2)c1 (centres unmarked) | 5.65% |
| O=C(CN(Cc1ccccc1)S(=O)(=O)c1ccc(Br)cc1)NCc1ccco1 | -3.16% |
| O=C(CCn1cnnn1)N1CCCC(Nc2ccc(F)c(F)c2)C1 (centres unmarked) | 15.1% |
| C=CCOC(=O)C1=C[C@@H](C2CCCCC2)C[C@@H](OCc2ccc(CO)cc2)O1 | 12.6% |
| COC(=O)c1c(C)[nH]c(O)c1C=Nc1ccc(C#N)cc1 | 7.01% |
| COc1cc(/C=N/n2cnnc2)ccc1OCCOc1ccccc1 | 10.5% |
| OCCC1CN(Cc2cnc(-c3ccccc3)s2)CCN1CCc1ccccc1 (centres unmarked) | -48.7% |
| COC(=O)c1ccc(C2/C(=C(\O)c3ccc4c(c3)OCCO4)C(=O)C(=O)N2c2nnc(C)s2)cc1 (centres unmarked) | 12.8% |
| Cc1ccc2[nH]c(=O)c(CN(CCCO)S(=O)(=O)c3cccc4nsnc34)cc2c1 | -5.96% |
| Nc1ccccc1-c1nc2ccccc2c(=O)o1 | 15.5% |
| COc1ccc(OC)c(S(=O)(=O)Nc2c(NC3CCCCC3)c3ccccc3oc2=O)c1 | -2.54% |
| O=C(Nc1ccc(N2CCOCC2)cc1)c1ccncc1 | 8.02% |
| CCOc1ccccc1CNCCc1ccc2c(c1)OCO2.Cl | 1.75% |
| CC(=O)c1ccc([C@H]2C[C@@]34CN(C(=O)OC(C)(C)C)S(=O)(=O)[C@H]3C[C@H]2O4)cc1 | 8.76% |
| CNc1nc2c(c(=O)n(C)c(=O)n2C)n1CCCc1ccccc1 | 14.4% |
| COc1ccc(S(=O)(=O)N2CCCCC2)cc1NC(=O)CSc1ncccn1 | 2.91% |
| CC(C)=C[C@@H]1C[C@H](C)[C@H]2CC[C@H](C)c3c(O)c(O)c(C)c1c32 | 15.6% |
| C(=N\n1cnnc1)/c1nc2ccccc2[nH]1 | 9.24% |
| Cc1ccc(CN2CCN(Cc3ccccc3-c3ccco3)CC2CCO)o1 (centres unmarked) | -3.73% |
| O=S(=O)(Cc1ccccc1Cl)NCCOc1ccccc1 | 5.72% |
| CSc1nc(N)cc(=O)[nH]1 | 8.1% |
| CC(=O)Nc1cccc(NC(=O)C2CCCN2C(=O)Nc2ccc(Cl)cc2)c1 (centres unmarked) | 6.1% |
| COC(=O)c1ccc(N2CCOCC2)c(NC(=O)c2ccc3c(c2)OCO3)c1 | 5.34% |

| Structure (SMILES) | hERG current change (%, negative = inhibition) at 1uM |
| --- | --- |
| COc1ccc(C(=O)/C(=C\N(C)C)n2nc(C)cc2C)cc1 | 1.81% |
| CCOC(=O)C(=O)Nc1ccc(S(=O)(=O)Nc2nccs2)cc1 | 13.9% |
| COc1ccccc1NC(=O)c1cc(S(=O)(=O)N2CCOCC2)ccc1Cl | -0.529% |
| CC(C)C1N(C(N)=S)N=CC1(C)C (centres unmarked) | 9.78% |
| Cc1cccc(NC(=O)NCCN2C(=O)C3C4C=CC(C4)C3C2=O)c1 (centres unmarked) | 1.92% |
| O=[N+]([O-])c1cccc(-c2nc(NCc3ccccc3)c3ccccc3n2)c1 | 9.78% |
| CSc1ncccc1C(=O)OCc1ccccc1F | 12.1% |
| O=C(O)C(=O)O.O=[N+]([O-])c1ccc(CNC2CCCc3ccccc32)cc1 (centres unmarked) | 5.22% |
| O=C(CCC(=O)Nc1cccc2ccccc12)N/N=C/c1ccco1 | 0.541% |
| COCCNC(=O)Cn1nc(-c2ccc(C)cc2)ccc1=O | 10.1% |
| O=C(NC1CCCC1)c1cccc(S(=O)(=O)N2CCOCC2)c1 | 16.4% |
| Fc1ccc(/C=N/NC(=S)Nc2ccc(Cl)cc2Cl)cc1 | 8.93% |
| CCc1cccc(C)c1NC(=O)CN1C(=O)c2ccccc2S1(=O)=O | 1.02% |
| Cc1nnc(SCC(=O)NNC(=O)C(C)C)[nH]c1=O | 13.1% |
| Cc1cs/c(=N\N=C\c2ccc(O)cc2)n1Cc1ccco1 | 7.62% |
| O=S(=O)(NCc1cccnc1)c1ccccc1 | 13.7% |
| O=C(Nn1c(-c2ccccc2)nc2ccccc2c1=O)c1ccco1 | 8.18% |
| Oc1ccccc1/C=N/n1c(-c2cccs2)n[nH]c1=S | 4.78% |
| CCNC(=O)COC(=O)/C=C/c1ccccc1[N+](=O)[O-] | 11.8% |
| CCc1ccccc1N(CC(=O)OC)S(C)(=O)=O | 15.4% |
| O=C(NCC(=O)N1CCOCC1)c1ccc(Br)o1 | 9.1% |
| CN(C)c1ccc(C(CNS(=O)(=O)c2ccc([N+](=O)[O-])cc2)N2CCCC2)cc1 (centres unmarked) | -6.67% |
| CN1CC2=CC(O)CC3Oc4c(O)ccc(c4[C@]23C)C1 (some centres unmarked) | 19.8% |

| Structure (SMILES) | hERG current change (%, negative = inhibition) at 1uM |
| --- | --- |
| COc1cc(CCC(=O)OCC(=O)Nc2c(C)cc(C)cc2C)cc(OC)c1OC | 3.3% |
| O=C1NC(=O)/C(=C/c2ccccn2)S1 | 12.5% |
| Cc1cc(C)n(CCC(=O)N2c3ccccc3CC2C)n1 (centres unmarked) | 9.29% |
| O=C(CCc1nc(-c2ccccc2Cl)no1)NC1CCCCC1 | 16.6% |
| COc1ccccc1C(=O)Nc1cc(C)c(OCC(=O)N2CCOCC2)c(C)c1 | 12% |
| CCOC(=O)N1CCN(C(=O)/C(=C/c2ccccc2OC)NC(=O)c2ccccc2)CC1 | -15% |
| COc1ccc(CCn2c(=N)c(C(=O)NCC3CCCO3)cc3c(=O)n4ccccc4nc32)cc1 (centres unmarked) | -84.4% |
| COc1ccccc1OCCn1cc(C(=O)O)c2ccccc21 | 6.09% |
| COc1ccc2cc3cc(C(=O)NCCCN4CCOCC4)oc3nc2c1 | 2.17% |
| COCC(=O)N/N=C(\C)CC(=O)Nc1ccccc1C(N)=O | 0.0449% |
| CC1CCC(NC(=O)CC(NC(N)=O)c2ccccc2Cl)CC1 (centres unmarked) | 12.8% |
| CSCCNC(=O)Nc1c(-c2c(Cl)cccc2Cl)noc1C | 14.6% |
| O=C(NCc1ccccc1)C(=O)NCC1OCCN1S(=O)(=O)c1cccs1 (centres unmarked) | 12.4% |
| CCOC(=O)N1CCN(S(=O)(=O)c2c(C)nn(C)c2C)CC1 | 15.6% |
| O=C(CSc1nn(-c2ccc(F)cc2)c(=S)s1)NCC1CCCO1 (centres unmarked) | -2.14% |
| Cc1cc(C)c(S(=O)(=O)Nc2cccc(-n3cnnn3)c2)c(C)c1 | 8.21% |
| CCN(CC)S(=O)(=O)c1ccc(C)c(NC(=O)CNCc2ccccc2OC)c1.O=C(O)C(=O)O | 20.9% |
| Cc1cccc(Nc2nc(NCCO)nc(N3CCCC3)n2)c1 | 18.1% |
| CCc1c(C)sc(NC(=O)CSc2nc3c(c(C(F)(F)F)n2)CCc2ccccc2-3)c1C#N | -2.86% |
| CN1C(=O)N(C)C(c2ccccc2Cl)C2=C1CC(C)(C)CC2=O (centres unmarked) | 18.9% |
